Source: PubChem BioAssay AID1645882 (National Center for Advancing Translational Sciences (NCATS), 2021)
About 120 (0.75%) of roughly 16,000 compounds were called active. About 4% were inconclusive and are not listed. Calls come from the whole dose curve; as a rule, active = well fitted inhibition curve with a large enough effect; inconclusive = small, poorly fitted or top-dose-only effect; inactive = no such curve, though single readings can be large or run the other way. Some of the results follow.

Biological target: Rap guanine nucleotide exchange factor 3 (Homo sapiens) (UniProt O95398)
Assay: Validation qHTS for antagonist of cAMP-regulated guanine nucleotide exchange factor 3 (EPAC1);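 note: plate controls were DMSO for no effect and ATA control for full effect; nearly all actives have a fitted effect of over 75% in size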
Conditions: EPAC1 Rap1B-BODIPY-GDP exchange, fluorescence; series mostly up to 150 µM; activity change, negative = inhibition: at the top concentration
In short: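 EPAC1 (100 nM) mixed with 250 nM RAP1B-BODIPY-GDP and 50 uM GDP; compounds in concentration series, 5 min at room temperature. Fluorescence (ex 480/em 540 nm) read every 5 min for 30 min; normalized to ATA control and DMSO.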

UniProt O95398, sequence (O95398 whole entry, looked up): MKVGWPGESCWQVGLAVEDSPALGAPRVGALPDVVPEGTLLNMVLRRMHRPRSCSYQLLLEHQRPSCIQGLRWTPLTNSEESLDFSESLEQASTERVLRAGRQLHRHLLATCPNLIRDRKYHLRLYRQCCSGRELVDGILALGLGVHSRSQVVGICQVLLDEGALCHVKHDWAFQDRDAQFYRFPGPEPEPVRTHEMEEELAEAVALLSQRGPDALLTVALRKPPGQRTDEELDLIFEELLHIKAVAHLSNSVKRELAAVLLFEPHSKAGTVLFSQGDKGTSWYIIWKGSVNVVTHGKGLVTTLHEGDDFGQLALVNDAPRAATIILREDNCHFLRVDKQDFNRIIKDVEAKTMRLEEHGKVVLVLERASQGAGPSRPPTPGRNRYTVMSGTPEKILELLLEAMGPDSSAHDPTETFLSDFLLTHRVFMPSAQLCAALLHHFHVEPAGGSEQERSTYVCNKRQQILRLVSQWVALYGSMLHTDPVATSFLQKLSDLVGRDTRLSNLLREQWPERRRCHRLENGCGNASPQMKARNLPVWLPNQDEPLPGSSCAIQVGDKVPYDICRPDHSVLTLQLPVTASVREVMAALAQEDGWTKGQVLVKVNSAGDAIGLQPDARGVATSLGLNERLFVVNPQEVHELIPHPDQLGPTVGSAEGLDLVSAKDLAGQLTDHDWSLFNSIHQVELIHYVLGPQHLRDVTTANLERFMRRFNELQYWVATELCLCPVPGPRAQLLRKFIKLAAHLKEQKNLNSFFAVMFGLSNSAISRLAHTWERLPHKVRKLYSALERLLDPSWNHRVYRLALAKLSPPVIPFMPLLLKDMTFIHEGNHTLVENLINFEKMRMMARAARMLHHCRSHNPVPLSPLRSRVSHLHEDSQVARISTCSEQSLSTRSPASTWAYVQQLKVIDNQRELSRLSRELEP

Activity change, negative = inhibition, inactive:
COc1ccc2[nH]cc(CC(N)C(=O)O)c2c1 (stereo not drawn)
COC(=O)N1CCC2(CCCN(Cc3ccccc3OC)C2)CC1 27.3%
Cn1c2ccccc2c2cc(C(=O)N3CCOc4ccc(C(C)(O)CCn5cccn5)cc4C3)ccc21 (stereo not drawn) 13.2%
NCC(O)COc1cccc2ccccc12 (stereo not drawn) 18.8%
O=S(=O)(O)c1ccc(O)cc1 4.55%
Fc1ccc(Nc2ncncc2-c2ccoc2)cc1 12.6%
Cc1ccccc1CNc1ncnc2c1ncn2C1OC(CO)C(O)C1O (stereo not drawn) 12.9% [at 75.8 µM]
CC1(C)CCCC2(C)C3C(O)CC2(C)C(O)C31 (stereo not drawn) 13.6%
CC(O)CO (stereo not drawn) 13.5%
O=c1[nH]cnc2c1nc(Cl)n2C1OC(CO)C(O)C1O (stereo not drawn) 8.98%
CCC1CN(CCNC(=O)c2ccc(N3CCOCC3)cc2)Cc2cc(OC)ccc2O1 (stereo not drawn) -8.45%
COc1ccc(NC(=O)N2CC3(CCN(C(=O)c4cc(C(F)(F)F)cc(C(F)(F)F)c4)CC3)C2)cc1 19.1%
O=C(C1CCCCC1)N1CC(=O)N2CCc3ccccc3C2C1 (stereo not drawn)
C[C@@H]1CCC(=O)N(C[C@@H](C)CC#N)CC1 2.86%
C=CS(=O)(=O)N(Cc1ccccc1)[C@H](CO)CC(C)C -13.1%
COc1ccc(C(=O)N2CCC3(CC2)c2ccccc2[C@@H](NC(=O)c2ccccn2)[C@@H]3OC)c(O)c1 15.8%
CN1CCN(c2ncc3ncc(=O)n(Cc4ccc(F)cc4)c3n2)CC1 6.59%
O=C(c1cccc(F)c1)N1CCC[C@@]2(CCN(c3ccccn3)C2)C1 7.64%
Cc1cnc(-n2ncc(C(=O)NCCCc3ccncc3)c2C)nc1-c1ccc(F)cc1 -9.07%
C(=C\c1ccccc1)/CN1CCN(C(c2ccccc2)c2ccccc2)CC1
Cn1c(=O)[nH]c(=O)c2[nH]cnc21 -5.27%
Nc1nc2c(ncn2[C@@H]2O[C@H](COP(=O)(O)OP(=O)(O)OP(=O)(O)O)[C@@H](O)C2O)c(=O)[nH]1 (stereo partly drawn) 2.21%
CCOC(=O)C1CCCN(C(=O)c2cnn(-c3nccc(-c4cc(C)sc4C)n3)c2C)C1 (stereo not drawn) 5.65%
O=C(O)[C@H](O)c1ccccc1 10.3%
O=C(c1ccc(F)c(F)c1)N1CCOc2ccc(CN3CCN(CCO)CC3)cc2C1 9.34%
COc1cc(C(=O)N(Cc2cc3ccc(C)cc3nc2N(C)C)C2CC2)cc(OC)c1OC 0.714%
COc1ccc2c(c1OC)C(=O)O[C@H]2C1c2c(cc3c(c2OC)OCO3)CCN1C (stereo partly drawn)
NC(CCC(=O)NC(CCSC(CC(=O)O)C(=O)O)C(=O)NCC(=O)O)C(=O)O (stereo not drawn) 16.9%
O=c1c(O)c(-c2ccc(O)cc2)oc2cc(O)ccc12 -7.82%
CC(C)CN1CCC(=O)N(CCSc2ccccc2)CC1 13.2%
CO[C@@]1(NC(=O)Cc2cccs2)C(=O)N2C(C(=O)O)=C(COC(N)=O)CSC21 (stereo partly drawn) 17.7%
Cc1noc(C)c1-c1cncnc1N1CCN(C)CC1 20.1%
C/C=C(/C)C(=O)OC1Cc2c(ccc3ccc(=O)oc23)OC1(C)C (stereo not drawn) 13.7%
CC[C@@H]1/C=C(\C)C[C@H](C)C[C@H](OC)[C@H]2O[C@@](O)(C(=O)C(=O)N3CCCC[C@H]3C(=O)O[C@H](/C(C)=C/[C@@H]3CC[C@@H](Cl)[C@H](OC)C3)[C@H](C)[C@@H](O)CC1=O)[C@H](C)C[C@@H]2OC 15.5%
CN(C)c1nc(CN2CCCCC2c2cccnc2)nc2ccccc12 (stereo not drawn) 12.8%
COc1ccc(C(=O)N2CCC[C@@]3(CCN(Cc4ccccc4)C3)C2)cc1 14.8%
O=C1[C@H](Cc2ccccc2)NC/C=C\C[C@H](c2ccc(Cl)cc2)N1Cc1ccc(Cl)cc1 -14.2%
C[C@@](N)(Cc1ccc(O)c(O)c1)C(=O)O 23.5%
NC(N)=NC(N)=Nc1cccc(Cl)c1
C[C@H]1O[C@@H](O[C@H]2[C@@H](O)C[C@H](O[C@H]3[C@@H](O)C[C@H](O[C@H]4CC[C@@]5(C)[C@H](CC[C@@H]6[C@@H]5C[C@@H](O)[C@]5(C)[C@@H](C7=CC(=O)OC7)CC[C@]65O)C4)O[C@@H]3C)O[C@@H]2C)C[C@H](O)[C@@H]1O
CN1CCN(C2=Nc3cc(F)ccc3Cc3ccccc32)CC1
O=P(O)(O)CP(=O)(O)O 11.5%
CSc1ccccc1N1CCN(CCCCCC(=O)NC2CCCc3ccccc32)CC1 (stereo not drawn) -8.66% [at 75.8 µM]
Cc1cnc(CNc2ncncc2-c2c(C)noc2C)cn1 2%
Clc1cccc[n+]1CCc1ccccc1 11.6%
CC(=O)O[C@@]1(C(C)=O)CCC2C3C=C(Cl)C4=CC(=O)CC[C@]4(C)C3CC[C@]21C (stereo partly drawn) -2.13%
O=S(=O)(c1ccccc1)N1CCC2(CCCN(c3ccncc3)C2)CC1 6.28%
CC(=O)c1ccc(F)c(-c2cc(C)cc3c2OC(CNC(=O)c2csc(C)n2)C3)c1 (stereo not drawn) -8.71%
c1ccc2[nH]ccc2c1 3.36%
Cc1ccc2nc(-c3ccccc3C)c(CN(CC3CCCO3)C(=O)c3cccs3)cc2c1 (stereo not drawn) -10.1%
O=C(N[C@@H]1CCC(=O)N(CC[C@H](Sc2ccc(Br)cc2)c2ccccc2)CC1)OCc1ccccc1 0.337%
CC(=O)Oc1cc2c(c(C)c1OC(C)=O)CC=C1[C@]3(C)CC[C@]4(C)CC[C@@](C)(C(=O)O)CC4[C@]3(C)CC[C@]12C (stereo partly drawn) 3.72%
O=C(OCC(O)CO)c1ccccc1Nc1ccnc2cc(Cl)ccc12 (stereo not drawn)
CC(=O)C[C@H]1c2cc(C(F)(F)F)ccc2S(=O)(=O)N1Cc1ccccc1 -8.21%
O=C(NCc1cccnc1)[C@@H]1CC=C[C@@H]2CCN(Cc3ccc(Cl)c(Cl)c3)C(=O)[C@@H]21 0.262%
CCCC1OC2CC3C4CCC5=CC(=O)C=CC5(C)C4C(O)CC3(C)[C@]2(C(=O)CO)O1 (stereo partly drawn) -5.21%
CCNc1ncc2nc(-c3cc(F)cc(F)c3)c(=O)n(C[C@H]3CCCO3)c2n1 2.14%
COc1cc(N)c(Cl)cc1C(=O)OCCCN1CCCCC1 4.94%
COc1ccccc1CNc1ccnc(-c2ccccc2OC)n1 -19.7%
CC(C(=O)O)c1ccc(-c2ccccc2)c(F)c1 (stereo not drawn)
N=C(N)c1ccc(OCCCOc2ccc(C(=N)N)cc2Br)c(Br)c1 39%
O=c1c(-c2ccc(F)cc2)nc2cnc(Oc3ccccc3)nc2n1Cc1cccs1 15.5%
C=C1C(C2(C)C=CC(=O)C(C)(C)C2CC(=O)OC)CC[C@@]2(C)C(c3ccoc3)OC(=O)C3OC132 (stereo partly drawn) -4.03%
